# From the supplement of paper PMC8728848
# The list shows a part of the results.
# B1: Epa1to9 (Candida glabrata) (protein)
# chain: MGSSHHHHHHSSGLVPRGSHMTSSNDISLASKDPTTFPLGCSPDITTPKKGLSMELYSYDFRKKGSYPCWDAAYLDPNYPRTGYKSHRLLAKVDGVTGNINFYYHATKGCTPQLGHLPASYNYPKPLTMTNFTMLLYGYFRPKVTGFHTFTISADDLLFVNFGAGNAFDCCRRDSSADHFGNYQAYAIWGSKTAKDELTVHLDAGVYYPIRLFYNNRDYHGALSFTFKTESNENTVSDFSEYFFSLDDTEEGCPGLISYD
# Experiments:
# Assay in all cases: glycan array binding signal (z-score within array); higher = stronger binding
# Settings in all cases: glycan notation: IUPAC condensed, linker removed
# [1] = target: Gal(b1-4)GalNAc(b1-3)[Fuc(a1-2)]Gal(b1-4)GlcNAc
# How it was run: (§1)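 Negative Z-scores can be read as non-binding. The Z-score is calculated within each array and then averaged across arrays of one protein sequence at different concentrations or buffers and across linkers. Arrays, 3228 in all, were curated from the Consortium for Functional Glycomics database and kept only where the protein sequence was available.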
# [2] = target: Gal(b1-4)Glc
# How it was run: as §1
# [3] = target: Gal(b1-4)Glc6S
# How it was run: as §1
# [4] = target: Gal(b1-4)GlcNAc
# How it was run: as §1
# [5] = target: Gal(b1-4)GlcNAc(a1-6)Gal(b1-4)GlcNAc
# How it was run: as §1
# [6] = target: Gal(b1-4)GlcNAc(b1-2)Man
# How it was run: as §1
# [7] = target: Gal(b1-4)GlcNAc(b1-2)Man(a1-3)Man(b1-4)GlcNAc(b1-4)GlcNAc
# How it was run: as §1
# [8] = target: Gal(b1-4)GlcNAc(b1-2)Man(a1-3)[Gal(b1-4)GlcNAc(b1-2)Man(a1-6)]Man(b1-4)GlcNAc(b1-4)GlcNAc
# How it was run: as §1
# [9] = target: Gal(b1-4)GlcNAc(b1-2)Man(a1-3)[Gal(b1-4)GlcNAc(b1-2)Man(a1-6)]Man(b1-4)GlcNAc(b1-4)[Fuc(a1-6)]GlcNAc
# How it was run: as §1
# [10] = target: Gal(b1-4)GlcNAc(b1-2)Man(a1-3)[Gal(b1-4)GlcNAc(b1-2)Man(a1-6)][Gal(b1-4)GlcNAc(b1-4)]Man(b1-4)GlcNAc(b1-4)[Fuc(a1-6)]GlcNAc
# How it was run: as §1
# [11] = target: Gal(b1-4)GlcNAc(b1-2)Man(a1-3)[Gal(b1-4)GlcNAc(b1-2)Man(a1-6)][GlcNAc(b1-4)]Man(b1-4)GlcNAc(b1-4)[Fuc(a1-6)]GlcNAc
# How it was run: as §1
# [12] = target: Gal(b1-4)GlcNAc(b1-2)Man(a1-3)[GlcNAc(b1-2)Man(a1-6)]Man(b1-4)GlcNAc(b1-4)GlcNAc
# How it was run: as §1
# [13] = target: Gal(b1-4)GlcNAc(b1-2)Man(a1-3)[GlcNAc(b1-4)][Gal(b1-4)GlcNAc(b1-2)Man(a1-6)]Man(b1-4)GlcNAc(b1-4)GlcNAc
# How it was run: as §1
# [14] = target: Gal(b1-4)GlcNAc(b1-2)Man(a1-3)[Man(a1-6)]Man(b1-4)GlcNAc(b1-4)GlcNAc
# How it was run: as §1
# [15] = target: Gal(b1-4)GlcNAc(b1-2)Man(a1-6)Man(b1-4)GlcNAc(b1-4)GlcNAc
# How it was run: as §1
# [16] = target: Gal(b1-4)GlcNAc(b1-2)Man(a1-6)[GlcNAc(b1-2)Man(a1-3)]Man(b1-4)GlcNAc(b1-4)GlcNAc
# How it was run: as §1
# [17] = target: Gal(b1-4)GlcNAc(b1-2)Man(a1-6)[Man(a1-3)]Man(b1-4)GlcNAc(b1-4)GlcNAc
# How it was run: as §1
# [18] = target: Gal(b1-4)GlcNAc(b1-2)[Gal(b1-4)GlcNAc(b1-4)]Man(a1-3)[Gal(b1-4)GlcNAc(b1-2)Man(a1-6)]Man(b1-4)GlcNAc(b1-4)GlcNAc
# How it was run: as §1
# [19] = target: Gal(b1-4)GlcNAc(b1-2)[Gal(b1-4)GlcNAc(b1-4)]Man(a1-3)[Gal(b1-4)GlcNAc(b1-2)[Gal(b1-4)GlcNAc(b1-6)]Man(a1-6)]Man(b1-4)GlcNAc(b1-4)GlcNAc
# How it was run: as §1
# [20] = target: Gal(b1-4)GlcNAc(b1-2)[Gal(b1-4)GlcNAc(b1-4)]Man(a1-3)[GlcNAc(b1-4)][Gal(b1-4)GlcNAc(b1-2)Man(a1-6)]Man(b1-4)GlcNAc(b1-4)GlcNAc
# How it was run: as §1
# [21] = target: Gal(b1-4)GlcNAc(b1-2)[Gal(b1-4)GlcNAc(b1-4)]Man(a1-3)[GlcNAc(b1-4)][Gal(b1-4)GlcNAc(b1-2)[Gal(b1-4)GlcNAc(b1-6)]Man(a1-6)]Man(b1-4)GlcNAc(b1-4)GlcNAc
# How it was run: as §1
# [22] = target: Gal(b1-4)GlcNAc(b1-2)[Gal(b1-4)GlcNAc(b1-6)]Man(a1-6)[Gal(b1-4)GlcNAc(b1-2)Man(a1-3)]Man(b1-4)GlcNAc(b1-4)GlcNAc
# How it was run: as §1
# [23] = target: Gal(b1-4)GlcNAc(b1-2)[Gal(b1-4)GlcNAc(b1-6)]Man(a1-6)[Gal(b1-4)GlcNAc(b1-2)Man(a1-3)]Man(b1-4)GlcNAc(b1-4)[Fuc(a1-6)]GlcNAc
# How it was run: as §1
# [24] = target: Gal(b1-4)GlcNAc(b1-2)[Gal(b1-4)GlcNAc(b1-6)]Man(a1-6)[GlcNAc(b1-4)][Gal(b1-4)GlcNAc(b1-2)Man(a1-3)]Man(b1-4)GlcNAc(b1-4)GlcNAc
# How it was run: as §1
# [25] = target: Gal(b1-4)GlcNAc(b1-2)[Gal(b1-4)GlcNAc(b1-6)]Man(a1-6)[GlcNAc(b1-4)][Gal(b1-4)GlcNAc(b1-2)[Gal(b1-4)GlcNAc(b1-4)]Man(a1-3)]Man(b1-4)GlcNAc(b1-4)[Fuc(a1-6)]GlcNAc
# How it was run: as §1
# [26] = target: Gal(b1-4)GlcNAc(b1-3)Gal(b1-3)GalNAc
# How it was run: as §1
# [27] = target: Gal(b1-4)GlcNAc(b1-3)Gal(b1-3)GlcNAc
# How it was run: as §1
# [28] = target: Gal(b1-4)GlcNAc(b1-3)Gal(b1-4)Glc
# How it was run: as §1
# [29] = target: Gal(b1-4)GlcNAc(b1-3)Gal(b1-4)GlcNAc
# How it was run: as §1
# [30] = target: Gal(b1-4)GlcNAc(b1-3)Gal(b1-4)GlcNAc(b1-2)Man(a1-3)[Gal(b1-4)GlcNAc(b1-3)Gal(b1-4)GlcNAc(b1-2)Man(a1-6)]Man(b1-4)GlcNAc(b1-4)GlcNAc
# How it was run: as §1
# [31] = target: Gal(b1-4)GlcNAc(b1-3)Gal(b1-4)GlcNAc(b1-2)Man(a1-3)[Gal(b1-4)GlcNAc(b1-3)Gal(b1-4)GlcNAc(b1-2)Man(a1-6)]Man(b1-4)GlcNAc(b1-4)[Fuc(a1-6)]GlcNAc
# How it was run: as §1
# [32] = target: Gal(b1-4)GlcNAc(b1-3)Gal(b1-4)GlcNAc(b1-2)[Gal(b1-4)GlcNAc(b1-3)Gal(b1-4)GlcNAc(b1-6)]Man(a1-6)[Gal(b1-4)GlcNAc(b1-3)Gal(b1-4)GlcNAc(b1-2)Man(a1-3)]Man(b1-4)GlcNAc(b1-4)GlcNAc
# How it was run: as §1
# [33] = target: Gal(b1-4)GlcNAc(b1-3)Gal(b1-4)GlcNAc(b1-2)[Gal(b1-4)GlcNAc(b1-3)Gal(b1-4)GlcNAc(b1-6)]Man(a1-6)[Gal(b1-4)GlcNAc(b1-3)Gal(b1-4)GlcNAc(b1-2)Man(a1-3)]Man(b1-4)GlcNAc(b1-4)[Fuc(a1-6)]GlcNAc
# How it was run: as §1
# [34] = target: Gal(b1-4)GlcNAc(b1-3)Gal(b1-4)GlcNAc(b1-3)Gal(b1-4)GlcNAc
# How it was run: as §1
# [35] = target: Gal(b1-4)GlcNAc(b1-3)Gal(b1-4)GlcNAc(b1-3)Gal(b1-4)GlcNAc(b1-2)Man(a1-3)[Gal(b1-4)GlcNAc(b1-3)Gal(b1-4)GlcNAc(b1-3)Gal(b1-4)GlcNAc(b1-2)Man(a1-6)]Man(b1-4)GlcNAc(b1-4)GlcNAc
# How it was run: as §1
# [36] = target: Gal(b1-4)GlcNAc(b1-3)Gal(b1-4)GlcNAc(b1-3)Gal(b1-4)GlcNAc(b1-2)Man(a1-3)[Gal(b1-4)GlcNAc(b1-3)Gal(b1-4)GlcNAc(b1-3)Gal(b1-4)GlcNAc(b1-2)Man(a1-6)]Man(b1-4)GlcNAc(b1-4)[Fuc(a1-6)]GlcNAc
# How it was run: as §1
# [37] = target: Gal(b1-4)GlcNAc(b1-3)Gal(b1-4)GlcNAc(b1-3)Gal(b1-4)GlcNAc(b1-2)[Gal(b1-4)GlcNAc(b1-3)Gal(b1-4)GlcNAc(b1-3)Gal(b1-4)GlcNAc(b1-6)]Man(a1-6)[Gal(b1-4)GlcNAc(b1-3)Gal(b1-4)GlcNAc(b1-3)Gal(b1-4)GlcNAc(b1-2)Man(a1-3)]Man(b1-4)GlcNAc(b1-4)[Fuc(a1-6)]GlcNAc
# How it was run: as §1
binder,measurement,setting,value
B1,glycan array binding signal (z-score),[1],1.66
same,glycan array binding signal (z-score),[2],0.111
same,glycan array binding signal (z-score),[3],0.828
same,glycan array binding signal (z-score),[4],0.318
same,glycan array binding signal (z-score),[5],1.12
same,glycan array binding signal (z-score),[6],-0.273
same,glycan array binding signal (z-score),[7],-0.102
same,glycan array binding signal (z-score),[8],1.17
same,glycan array binding signal (z-score),[9],0.309
same,glycan array binding signal (z-score),[10],-0.161
same,glycan array binding signal (z-score),[11],-0.041
same,glycan array binding signal (z-score),[12],-0.131
same,glycan array binding signal (z-score),[13],-0.068
same,glycan array binding signal (z-score),[14],-0.161
same,glycan array binding signal (z-score),[15],-0.159
same,glycan array binding signal (z-score),[16],-0.101
same,glycan array binding signal (z-score),[17],-0.197
same,glycan array binding signal (z-score),[18],0.315
same,glycan array binding signal (z-score),[19],2.08
same,glycan array binding signal (z-score),[20],0.104
same,glycan array binding signal (z-score),[21],0.491
same,glycan array binding signal (z-score),[22],2.54
same,glycan array binding signal (z-score),[23],3.13
same,glycan array binding signal (z-score),[24],0.13
same,glycan array binding signal (z-score),[25],0.964
same,glycan array binding signal (z-score),[26],-0.14
same,glycan array binding signal (z-score),[27],-0.107
same,glycan array binding signal (z-score),[28],0.277
same,glycan array binding signal (z-score),[29],-0.064
same,glycan array binding signal (z-score),[30],0.178
same,glycan array binding signal (z-score),[31],0.45
same,glycan array binding signal (z-score),[32],0.64
same,glycan array binding signal (z-score),[33],0.816
same,glycan array binding signal (z-score),[34],-0.034
same,glycan array binding signal (z-score),[35],0.169
same,glycan array binding signal (z-score),[36],0.269
same,glycan array binding signal (z-score),[37],0.533
